We go through one molecule from patent publication US20130131319A1 (Chugai, published 2013).

The experiment deals with T1, mouse FcRn (mouse, UniProt Q61559 22-297; P01887 21-119, limits assumed).
T1 sequence (looked up) 1: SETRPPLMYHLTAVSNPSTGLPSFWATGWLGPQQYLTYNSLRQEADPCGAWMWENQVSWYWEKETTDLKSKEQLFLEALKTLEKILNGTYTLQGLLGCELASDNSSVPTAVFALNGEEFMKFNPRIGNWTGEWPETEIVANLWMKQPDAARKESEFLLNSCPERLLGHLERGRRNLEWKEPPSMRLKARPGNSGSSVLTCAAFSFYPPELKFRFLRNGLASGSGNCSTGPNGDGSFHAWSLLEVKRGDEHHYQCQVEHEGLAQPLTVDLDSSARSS
T1 sequence (looked up) 2: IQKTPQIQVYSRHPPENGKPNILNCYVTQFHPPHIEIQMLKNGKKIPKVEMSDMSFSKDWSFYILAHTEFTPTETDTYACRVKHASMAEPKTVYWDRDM
Briefly: Biacore pH 7.4, 25C, mouse FcRn analyte. (In general: Surface plasmon resonance follows binding to a sensor surface in real time, without labels.)

By Kd is commonly meant the constant that tells how readily two partners part at equilibrium.

B1: VH3/L (WT)-IgG1-F20 (antibody)
heavy: QVQLQESGPGLVKPSETLSLTCAVSGHSISHDHAWSWVRQPPGEGLEWIGFISYSGITNYNPSLQGRVTISRDNSKNTLYLQMNSLRAEDTAVYYCARSLARTTAMDYWGEGTLVTVSS[human IgG1 constant region with V308F N434Y (EU numbers) omitted here]
light: DIQMTQSPSSLSASVGDRVTITCRASQDISSYLNWYQQKPGKAPKLLIYYTSRLHSGVPSRFSGSGSGTDFTFTISSLQPEDIATYYCQQGNTLPYTFGQGTKVEIKRTVAAPSVFIFPPSDEQLKSGTASVVCLLNNFYPREAKVQWKVDNALQSGNSQESVTEQDSKDSTYSLSSTLTLSKADYEKHKVYACEVTHQGLSSPVTKSFNRGEC
notes: copies: 2 + 2
With B1, binding was characterised by a dissociation constant (Kd) of 117 nM.
